From publication PMC12136788
The other results are listed elsewhere or left out.

B1: chr2:15946816:15946917:+|3pUTR|ENSG00000134323|unk|FALSE|unique (ssRNA)
RNA: GGGAGUUCUACAGUCCGACGAUCUAUAUGCCUUUUUCCUAGCCUGUUUCUUCCUGUUAAUGUAUUUGUUCAUGUUUGGUGCAUAGAACUGGGUAAAUGCAAAGUUCUGUGUUUAAUUUCUUCAAAAUGUAUAUAUUUAGUGCUCAACAGAGGAUUGAGCAUCA
B2: ENSG00000165280:stop:overlap|stop_codon|ENSG00000165280|stop_codon|NA|stop_codon (ssRNA)
RNA: GGGAGUUCUACAGUCCGACGAUCCCGAGGUCAUGAACUCUCUAGCAGUUACUAUGGAUGACUUCCGGUUUUCCCUCCUUUUCUAGUGGGCCUUGAGCCAGAGUAACCCAUCAGCACUGCGGGAAACCGUGGUAGAGGUGCCACCAACAGAGGAUUGAGCAUCA
B3: chr6:149811313:149811414:+|3pUTR|ENSG00000120265|msi1|FALSE|unique (ssRNA)
RNA: GGGAGUUCUACAGUCCGACGAUCUGUUUCUAAUUUGCUGCUGAUAAUGUAUAUGAACUUAACAUGCUGUGUAAGCUGUGUCCUAGUUCUUGAACAGUUUAUGCAGUGCUGCUUUGCCAAAUAAAGUUAAAAGUAAAAGAGGCACAACAGAGGAUUGAGCAUCA
B4: chr19:53069209:53069329:-|CDS|ENSG00000170949|unk|total|mutant (ssRNA)
RNA: GGGAGUUCUACAGUCCGACGAUCUGGAGAGAAACCUUACAAGUGCAAUGAGUGCGGCAAAGCCUUCCGUGUUCGUUCAAGCCCCGCAAUCCAUCAGACAAUCCACACUGGAGAAAAACCUUACAAAUGUAAUGAAUGUGGCAACAACAGAGGAUUGAGCAUCA
B5: chr10:100209595:100209696:-|CDS|ENSG00000213341|unk|FALSE|unique (ssRNA)
RNA: GGGAGUUCUACAGUCCGACGAUCACUUCUUUCAGAGACAGGAAUUUCUCUGGAUCCUCGGAAACCAGCCUCUCAAUGUGUUCUAGAUGGAGUUGUAAGAAAAUUAAUUAUAAUAUCCCUAGAGUAUGUGAAAUCUAGAGGGAUCAACAGAGGAUUGAGCAUCA
B6: chr3:44647099:44647200:+|3pUTR|ENSG00000186448|msi1|FALSE|unique (ssRNA)
RNA: GGGAGUUCUACAGUCCGACGAUCAUUUGUAUGUAAACUACAUAAAGAACUUUCCAAAUUUAACAGUAAUAAGUAAAUACAAUUAGAAAAUAAGCAAAAGACAGACAUUUCACUGAAGUAUAGAUAGCAAAUAAGCAAAUGAAACAACAGAGGAUUGAGCAUCA
B7: chr9:21227606:21228173:-|CDS|ENSG00000234829|control|control|control (ssRNA)
RNA: GGGAGUUCUACAGUCCGACGAUCGCAGACCUUCAAUCUCUUCAGCACAGAGGACUCAUCUGCUGCUUGGGAACAGAGCCUCCUAGAAAAAUUUUCCACUGAACUUUACCAGCAACUGAAUAACCUGGAAGCAUGUGUGAUACACAACAGAGGAUUGAGCAUCA
B8: chr7:152122106:152122213:+|3pUTR|ENSG00000178234|unk|FALSE|unique (ssRNA)
RNA: GGGAGUUCUACAGUCCGACGAUCAGUGGUUUUUAUCUGAUCAGGAACUUGUCAUGAUUUCCUUUCUUAGACUUCAUAGGAGAUAGUGCUUUAAAAAAAAAAAAAACUUCUAUUAUUUGUUUAGUAUGUUGUAAGUAGAUCAUUCAACAGAGGAUUGAGCAUCA
B9: ENSG00000173757:stop:overlap|stop_codon|ENSG00000173757|stop_codon|NA|stop_codon (ssRNA)
RNA: GGGAGUUCUACAGUCCGACGAUCACCAGGCCCCCUCCCCAGCUGUGUGUCCCCAGGCUCACUAUAACAUGUACCCACAGAAGUAGGUGGCAUUCUUGUGGGGGUCCACAGGGGAGGAACUGGGGGCUUGGCCCCAGGCUGGACCAACAGAGGAUUGAGCAUCA
B10: ENSG00000107863:be:win_1901|CDS|ENSG00000107863|bound_else_gene|NA|bound_elsewhere_windowed (ssRNA)
RNA: GGGAGUUCUACAGUCCGACGAUCCAAAACCAUCAUUUAGCCAGAAAUCAUUUGUUUCUAUCAAAGACCAAAGACCAGUAAAUCACUUGCAUCAGAACAGUCUGUUGAAUCAGCAGACAUGGGUAAGGACUGACAGUGCCCCCGCAACAGAGGAUUGAGCAUCA
B11: chr16:3727831:3727932:-|CDS|ENSG00000005339|unk|FALSE|bound_elsewhere (ssRNA)
RNA: GGGAGUUCUACAGUCCGACGAUCCGUCUCACCCCAGACUGGUUCCCCCCACCCCGGACUCGCAGUCACCAUGGCCAGCUCCAUAGAUCAGGGACACUUGGGGAACCCCGAACAGAGUGCAAUGCUCCCCCAGCUGAACACCCCCAACAGAGGAUUGAGCAUCA
B12: ENSG00000070961:be:win_951|CDS|ENSG00000070961|bound_else_gene|NA|bound_elsewhere_windowed (ssRNA)
RNA: GGGAGUUCUACAGUCCGACGAUCUGAGAAUCGCAACAAAGCAAAAGCCCAGGAUGGUGCAGCCAUGGAAAUGCAGCCAUUGAAGAGUGAAGAAGGUGGAGAUGGUGAUGAAAAAGAUAAAAAGAAAGCAAAUUUGCCAAAAAACAACAGAGGAUUGAGCAUCA
B13: chr4:7762510:7762611:-|3pUTR|ENSG00000196526|msi1|total|mutant (ssRNA)
RNA: GGGAGUUCUACAGUCCGACGAUCGUGCAAUAUUUCUUGGAGAAUUUGGAUGCCUAAGGCAUAAAGGAAAAAAACAGAGUUCACCGUUUGAGCUGGUAUUUACCCCCUGGGUUUAAAAAUCAGAUUAACUUCUUGGUCUCCCGGCAACAGAGGAUUGAGCAUCA
B14: chr10:92030311:92030412:+|3pUTR|ENSG00000095564|unk|total|mutant (ssRNA)
RNA: GGGAGUUCUACAGUCCGACGAUCAUAUAAGAUUGAAACUGUAAAAUAUAUGCAACUGUGUGUUAUUUGCCGGAAAUGGUCACCCGAAAGAGCAAAAGAUUAUUCAGGUAUACAGGUUUUUUUUCAUUGUUCCGGAUUUUAACUCAACAGAGGAUUGAGCAUCA
B15: chr12:109450965:109451066:-|3pUTR|ENSG00000110906|msi1|total|mutant (ssRNA)
RNA: GGGAGUUCUACAGUCCGACGAUCGCCCGGGCACAAUCCCCACUGCUUUGCCCGACGUGCUUUCUGCCAUGUGGCUUUGGGCCCCGAGCUUGUUGAUAAUUGCAGCUUGUGGCAGUGGAAAUAUGGCUGAAUGAGCGUCUAAAUCAACAGAGGAUUGAGCAUCA
B16: chr7:80742902:80743013:-|3pUTR|ENSG00000075223|msi1_unk|FALSE|overlapping (ssRNA)
RNA: GGGAGUUCUACAGUCCGACGAUCUCAGAGUCACAGUUCCCUUUAUUUCACAUAAGCCCAAACUGAUAGACAGUAACGGUGUUUAGUUUUAUACUAUAUUUGUGCUAUUUAAUUCUUUCUAUUUUCACAAUUAUUAAAUUGUGUCAACAGAGGAUUGAGCAUCA
B17: chr2:32377587:32377702:+|CDS|ENSG00000115760|unk|total|mutant (ssRNA)
RNA: GGGAGUUCUACAGUCCGACGAUCGGUGAAAUGUCAGUAUAUCUCUGCUGUGGAUAAAGUUAUAUUUGUGGAUGAUUAUGCAGCCGGGUGCCGGAAGGACCUUAAUGGAAUCUUGUUGUCCGACACUGCUCUGCAAACUCCAGUCAACAGAGGAUUGAGCAUCA
B18: chr1:193029531:193029688:-|CDS|ENSG00000116750|unk|total|mutant (ssRNA)
RNA: GGGAGUUCUACAGUCCGACGAUCUUGAUAUCUUCACUUUUAUAUUUUACCGGUAAUUAAUAAUGCUUGUGCUACUCAAGCCACCGUGAGUGUGUUACUGAACUGUACCCACCAGGAUGUCCAUUCCGGCGAGACAUUAUCAGACAACAGAGGAUUGAGCAUCA
B19: chr1:205337401:205337592:-|CDS|ENSG00000162873|control|control|control (ssRNA)
RNA: GGGAGUUCUACAGUCCGACGAUCGAAGAACAAAUGGGAGAUCCUCCCUGCCAUGCCCACACCCCGCUGUGCCUGCUCCAGCAUAGUCGUCAAGAACUGCCUCCUCGCCGUGGGAGGUGUCAACCAGGGUCUGAGUGACGCAGUCAACAGAGGAUUGAGCAUCA
B20: chr11:48137134:48137235:+|CDS|ENSG00000149177|msi1|FALSE|unique (ssRNA)
RNA: GGGAGUUCUACAGUCCGACGAUCCACGUACUCCUACUGCCUUCUUAUUGAGAAGGCUGGAAAUUCCAGCAACGCAACACAAGUAGUCACGGACAUUGGAAUUACUGACGCUACAGUCACUGAAUUAAUACCUGGCUCAUCAUACAACAGAGGAUUGAGCAUCA
B21: chr12:26337790:26337891:-|3pUTR|ENSG00000123104|unk|total|mutant (ssRNA)
RNA: GGGAGUUCUACAGUCCGACGAUCAAGAUCUAUGCCGAAUAUAAAGGAAGCCUGAACCAAUCCUUCCACAUACUGUUAAGAUGCCGACUUGGAACAAAGCUGUUGGGACCCAGAGCAAUGAAUUUUUGAACUGAAGCUACUGGUCAACAGAGGAUUGAGCAUCA
B22: chr1:203709306:203709407:+|CDS|ENSG00000058668|msi1|FALSE|unique (ssRNA)
RNA: GGGAGUUCUACAGUCCGACGAUCUCCAGAGAAGGAGGGAGGCCUGCCUCGGCAGGUGGGCAACAAGACCGAGUGUGCUCUGCUAGGCUUUGUCACAGAUCUGAAGCAGGAUUAUCAGGCUGUGCGUAAUGAAGUGCCCGAGGACAACAGAGGAUUGAGCAUCA

These binders were tested against MSI1 full-length (mouse, UniProt Q61474 1-362) (assay: nsRBNS (natural sequence RNA bind-n-seq); RBNS binding buffer (assumed for nsRBNS): 25 mM Tris pH 7.5, 150 mM KCl, 3 mM MgCl2, 0.01% Triton X-100, 500 ug/ml BSA, 20 U/ml SUPERase-In, 4 C; UNK is unkempt and MSI1 is Musashi-1; names of the RNAs are library labels; protein concentration not given here; high values mean tight binding).
Chain of UniProt Q61474 (Q61474 whole entry): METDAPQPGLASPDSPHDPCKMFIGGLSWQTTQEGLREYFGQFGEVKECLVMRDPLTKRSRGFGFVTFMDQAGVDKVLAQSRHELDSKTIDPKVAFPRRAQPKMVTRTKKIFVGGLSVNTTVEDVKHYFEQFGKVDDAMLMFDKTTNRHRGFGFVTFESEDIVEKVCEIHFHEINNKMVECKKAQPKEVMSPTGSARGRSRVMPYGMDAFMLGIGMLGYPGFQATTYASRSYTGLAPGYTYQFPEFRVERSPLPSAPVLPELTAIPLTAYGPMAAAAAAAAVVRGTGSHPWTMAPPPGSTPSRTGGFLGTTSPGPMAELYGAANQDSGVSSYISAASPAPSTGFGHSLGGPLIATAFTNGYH

For B1, which binding signal is on record?
Its binding signal is 6.12 enrichment R.

B2 was tested. Which binding signal did it give?
The binding signal was 0.663 enrichment R.

Which binding signal does the source give for B3 here?
The binding signal was 0.87 enrichment R.

For B4, which binding signal is on record?
The binding signal was 0.399 enrichment R.

Which binding signal does the source give for B5 here?
Its binding signal is 0.755 enrichment R.

How did the binding signal turn out when B6 was run?
Its binding signal is 129 enrichment R.

For B7, which binding signal is on record?
Its binding signal is 0.449 enrichment R.

With B8 as the binder, how does the binding signal read?
The binding signal was 20.2 enrichment R.

B9 was tested. Which binding signal did it give?
The binding signal was 0.357 enrichment R.

For B10, which binding signal is on record?
The binding signal was 0.904 enrichment R.

Which binding signal does the source give for B11 here?
Its binding signal is 0.562 enrichment R.

With B12 as the binder, how does the binding signal read?
Its binding signal is 0.426 enrichment R.

Which binding signal does the source give for B13 here?
The binding signal was 0.266 enrichment R.

For B14, which binding signal is on record?
Its binding signal is 0.297 enrichment R.

For B15, which binding signal is on record?
Its binding signal is 0.424 enrichment R.

With B16 as the binder, how does the binding signal read?
The binding signal was 5.09 enrichment R.

For B17, which binding signal is on record?
The binding signal was 0.427 enrichment R.

How did the binding signal turn out when B18 was run?
Its binding signal is 1.15 enrichment R.

With B19 as the binder, how does the binding signal read?
Its binding signal is 0.533 enrichment R.

With B20 as the binder, how does the binding signal read?
The binding signal was 0.446 enrichment R.

For B21, which binding signal is on record?
The binding signal was 0.335 enrichment R.

B22 was tested. Which binding signal did it give?
Its binding signal is 0.411 enrichment R.
